Test results taken from paper PMC10165274.

Target: N555-hRFC, N-terminal truncation variant of the human replication factor C clamp loader complex (human) (UniProt P35251)

Substance	K (d, app) from RFC ATPase activity as a function of PCNA concentration (0 to 600 nM PCNA) [nM]
PCNA-C148S (a stretch of the chain, sequence left out) (natural protein)	200
PCNA-S228I (a stretch of the chain, sequence left out) (natural protein)	120
